# Measurements reported in the supplement of paper PMC12217912.
# Some of the results follow. Sequences were assembled here from the parent chain. Inactive controls read about 0.05.
# B1: TEV protease; numbered along this chain (parent)
# chain: MGESLFKGPRDYNPISSSICHLTNESDGHTTSLYGIGFGPFIITNKHLFRRNNGTLVVQSLHGVFKVKDTTTLQQHLVDGRDMIIIRMPKDFPPFPQKLKFREPQREERICLVTTNFQTKSMSSMVSDTSCTFPSGDGIFWKHWIQTKDGQCGSPLVSTRDGFIVGIHSASNFTNTNNYFTSVPKNFMELLTNQEAQQWVSGWRLNADSVLWGGHKVFMVKPEEPFQPVKEATQL
# Variants of: B1
# Test: raw area under fraction-flipped curve 0-4 h after induction (AUC4h, not background-subtracted), DNA-recorder readout of cleavage of the substrate (dimensionless); higher = more cleavage of the substrate by the protease variant
# Details: temperature: 34 °C; time window: 0-4 h after rhamnose induction
# 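Also: Bxb1 expression induced with 0.2% (w/v) L-rhamnose at OD600 near 0.5, cultures sampled hourly, flipped fraction per protease–substrate barcode pair counted by paired-end Illumina sequencing.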
Variant,area with substrate ECLYFQS,area with substrate EDLYFQS,area with substrate EGLYFQS,area with substrate EKLYFQS,area with substrate ELLYFQS,area with substrate EMLYFQS,area with substrate EPLYFQS,area with substrate ERLYFQS,area with substrate ESLYFQS,area with substrate EVLYFQS
MGESLFKGPRDYNPISSSICHLTNESDGHTTSLYGIGFGPFIITNKHLFRRNNGTLVVQSLHGVFKVKDTTTLQQHLVDGRDMVIIRMPKDFPPFPQKLKFREPQREERICLVTTNFQTKSMSSMVSDTSCTFPSGDGIFWKHWIQTKDGQCGSPLVSTRDGFIVGIHSASNFTNTNNYFTSVPKNFMELLTNQEAQQWVSGWRLNADSVLWGGHKVFMVKPEEPFQPVKEATQL [I84V],0.121,0.136,0.104,0.116,0.0827,0.102,0.133,0.107,0.149,0.103
MGESLFKGPRDYNPISSSICHLTNESDGHTTSLYGIGFGPFIITNKHLFRRNNGTLVVQSLHGVFKVKDTTTLQQHLVDGRDMIHIRMPKDFPPFPQKLKFREPQREERICLVTTNFQTKSMSSMVSDTSCTFPSGDGIFWKHWIQTKDGQCGSPLVSTRDGFIVGIHSASNFTNTNNYFTSVPKNFMELLTNQEAQQWVSGWRLNADSVLWGGHKVFMVKPEEPFQPVKEATQL [I85H],0.0775,–,0.0515,0.0445,–,–,–,0.0655,–,–
MGESLFKGPRDYNPISSSICHLTNESDGHTTSLYGIGFGPFIITNKHLFRRNNGTLVVQSLHGVFKVKDTTTLQQHLVDGRDMIICRMPKDFPPFPQKLKFREPQREERICLVTTNFQTKSMSSMVSDTSCTFPSGDGIFWKHWIQTKDGQCGSPLVSTRDGFIVGIHSASNFTNTNNYFTSVPKNFMELLTNQEAQQWVSGWRLNADSVLWGGHKVFMVKPEEPFQPVKEATQL [I86C],0.0985,–,–,0.0473,0.0855,–,0.108,0.0852,0.0812,0.0837
MGESLFKGPRDYNPISSSICHLTNESDGHTTSLYGIGFGPFIITNKHLFRRNNGTLVVQSLHGVFKVKDTTTLQQHLVDGRDMIIIQMPKDFPPFPQKLKFREPQREERICLVTTNFQTKSMSSMVSDTSCTFPSGDGIFWKHWIQTKDGQCGSPLVSTRDGFIVGIHSASNFTNTNNYFTSVPKNFMELLTNQEAQQWVSGWRLNADSVLWGGHKVFMVKPEEPFQPVKEATQL [R87Q],0.123,–,–,–,–,–,–,–,0.182,–
MGESLFKGPRDYNPISSSICHLTNESDGHTTSLYGIGFGPFIITNKHLFRRNNGTLVVQSLHGVFKVKDTTTLQQHLVDGRDMIIIRLPKDFPPFPQKLKFREPQREERICLVTTNFQTKSMSSMVSDTSCTFPSGDGIFWKHWIQTKDGQCGSPLVSTRDGFIVGIHSASNFTNTNNYFTSVPKNFMELLTNQEAQQWVSGWRLNADSVLWGGHKVFMVKPEEPFQPVKEATQL [M88L],0.115,–,0.0746,0.073,0.122,0.111,0.118,0.0904,0.101,–
MGESLFKGPRDYNPISSSICHLTNESDGHTTSLYGIGFGPFIITNKHLFRRNNGTLVVQSLHGVFKVKDTTTLQQHLVDGRDMIIIRMAKDFPPFPQKLKFREPQREERICLVTTNFQTKSMSSMVSDTSCTFPSGDGIFWKHWIQTKDGQCGSPLVSTRDGFIVGIHSASNFTNTNNYFTSVPKNFMELLTNQEAQQWVSGWRLNADSVLWGGHKVFMVKPEEPFQPVKEATQL [P89A],0.0825,–,0.075,–,–,–,–,0.0875,0.0861,–
MGESLFKGPRDYNPISSSICHLTNESDGHTTSLYGIGFGPFIITNKHLFRRNNGTLVVQSLHGVFKVKDTTTLQQHLVDGRDMIIIRMPADFPPFPQKLKFREPQREERICLVTTNFQTKSMSSMVSDTSCTFPSGDGIFWKHWIQTKDGQCGSPLVSTRDGFIVGIHSASNFTNTNNYFTSVPKNFMELLTNQEAQQWVSGWRLNADSVLWGGHKVFMVKPEEPFQPVKEATQL [K90A],0.0916,–,–,–,–,–,0.104,–,0.101,–
MGESLFKGPRDYNPISSSICHLTNESDGHTTSLYGIGFGPFIITNKHLFRRNNGTLVVQSLHGVFKVKDTTTLQQHLVDGRDMIIIRMPKDKPPFPQKLKFREPQREERICLVTTNFQTKSMSSMVSDTSCTFPSGDGIFWKHWIQTKDGQCGSPLVSTRDGFIVGIHSASNFTNTNNYFTSVPKNFMELLTNQEAQQWVSGWRLNADSVLWGGHKVFMVKPEEPFQPVKEATQL [F92K],0.114,0.0882,0.0809,–,–,0.0859,–,–,–,–
MGESLFKGPRDYNPISSSICHLTNESDGHTTSLYGIGFGPFIITNKHLFRRNNGTLVVQSLHGVFKVKDTTTLQQHLVDGRDMIIIRMPKDLPPFPQKLKFREPQREERICLVTTNFQTKSMSSMVSDTSCTFPSGDGIFWKHWIQTKDGQCGSPLVSTRDGFIVGIHSASNFTNTNNYFTSVPKNFMELLTNQEAQQWVSGWRLNADSVLWGGHKVFMVKPEEPFQPVKEATQL [F92L],0.108,–,–,0.0893,0.11,0.104,0.114,0.0989,–,0.0827

# Same assay, conditions: temperature: 34 °C; time window: 0-4 h after rhamnose induction
Variant,area with substrate EYLYFQS,area with substrate EQLYFQS,area with substrate EWLYFQS,area with substrate EELYFQS,area with substrate EILYFQS,area with substrate EFLYFQS,area with substrate EHLYFQS
MGESLFKGPRDYNPISSSICHLTNESDGHTTSLYGIGFGPFIITNKHLFRRNNGTLVVQSLHGVFKVKDTTTLQQHLVDGRDMVIIRMPKDFPPFPQKLKFREPQREERICLVTTNFQTKSMSSMVSDTSCTFPSGDGIFWKHWIQTKDGQCGSPLVSTRDGFIVGIHSASNFTNTNNYFTSVPKNFMELLTNQEAQQWVSGWRLNADSVLWGGHKVFMVKPEEPFQPVKEATQL [I84V],0.0855,–,–,–,–,–,–
MGESLFKGPRDYNPISSSICHLTNESDGHTTSLYGIGFGPFIITNKHLFRRNNGTLVVQSLHGVFKVKDTTTLQQHLVDGRDMIHIRMPKDFPPFPQKLKFREPQREERICLVTTNFQTKSMSSMVSDTSCTFPSGDGIFWKHWIQTKDGQCGSPLVSTRDGFIVGIHSASNFTNTNNYFTSVPKNFMELLTNQEAQQWVSGWRLNADSVLWGGHKVFMVKPEEPFQPVKEATQL [I85H],–,0.0615,0.07,–,–,–,–
MGESLFKGPRDYNPISSSICHLTNESDGHTTSLYGIGFGPFIITNKHLFRRNNGTLVVQSLHGVFKVKDTTTLQQHLVDGRDMIICRMPKDFPPFPQKLKFREPQREERICLVTTNFQTKSMSSMVSDTSCTFPSGDGIFWKHWIQTKDGQCGSPLVSTRDGFIVGIHSASNFTNTNNYFTSVPKNFMELLTNQEAQQWVSGWRLNADSVLWGGHKVFMVKPEEPFQPVKEATQL [I86C],–,0.103,–,0.0597,0.0679,–,–
MGESLFKGPRDYNPISSSICHLTNESDGHTTSLYGIGFGPFIITNKHLFRRNNGTLVVQSLHGVFKVKDTTTLQQHLVDGRDMIIIQMPKDFPPFPQKLKFREPQREERICLVTTNFQTKSMSSMVSDTSCTFPSGDGIFWKHWIQTKDGQCGSPLVSTRDGFIVGIHSASNFTNTNNYFTSVPKNFMELLTNQEAQQWVSGWRLNADSVLWGGHKVFMVKPEEPFQPVKEATQL [R87Q],0.149,0.161,–,–,0.0631,–,–
MGESLFKGPRDYNPISSSICHLTNESDGHTTSLYGIGFGPFIITNKHLFRRNNGTLVVQSLHGVFKVKDTTTLQQHLVDGRDMIIIRLPKDFPPFPQKLKFREPQREERICLVTTNFQTKSMSSMVSDTSCTFPSGDGIFWKHWIQTKDGQCGSPLVSTRDGFIVGIHSASNFTNTNNYFTSVPKNFMELLTNQEAQQWVSGWRLNADSVLWGGHKVFMVKPEEPFQPVKEATQL [M88L],–,0.139,0.109,–,0.107,0.154,–
MGESLFKGPRDYNPISSSICHLTNESDGHTTSLYGIGFGPFIITNKHLFRRNNGTLVVQSLHGVFKVKDTTTLQQHLVDGRDMIIIRMAKDFPPFPQKLKFREPQREERICLVTTNFQTKSMSSMVSDTSCTFPSGDGIFWKHWIQTKDGQCGSPLVSTRDGFIVGIHSASNFTNTNNYFTSVPKNFMELLTNQEAQQWVSGWRLNADSVLWGGHKVFMVKPEEPFQPVKEATQL [P89A],–,0.103,–,0.096,0.0723,–,–
MGESLFKGPRDYNPISSSICHLTNESDGHTTSLYGIGFGPFIITNKHLFRRNNGTLVVQSLHGVFKVKDTTTLQQHLVDGRDMIIIRMPADFPPFPQKLKFREPQREERICLVTTNFQTKSMSSMVSDTSCTFPSGDGIFWKHWIQTKDGQCGSPLVSTRDGFIVGIHSASNFTNTNNYFTSVPKNFMELLTNQEAQQWVSGWRLNADSVLWGGHKVFMVKPEEPFQPVKEATQL [K90A],–,–,–,0.113,–,–,–
MGESLFKGPRDYNPISSSICHLTNESDGHTTSLYGIGFGPFIITNKHLFRRNNGTLVVQSLHGVFKVKDTTTLQQHLVDGRDMIIIRMPKDLPPFPQKLKFREPQREERICLVTTNFQTKSMSSMVSDTSCTFPSGDGIFWKHWIQTKDGQCGSPLVSTRDGFIVGIHSASNFTNTNNYFTSVPKNFMELLTNQEAQQWVSGWRLNADSVLWGGHKVFMVKPEEPFQPVKEATQL [F92L],–,0.157,–,–,–,0.116,0.136
